From paper PMC4349318
These are yes or no findings as the source states them, for the method shown. Binding seen in cells or lysates may run through a third protein. Some binding calls cover weakened binding; strength is not graded here.

By UniProt entry, the sequences of proteins in these tests, tags left out.
UniProt O96020: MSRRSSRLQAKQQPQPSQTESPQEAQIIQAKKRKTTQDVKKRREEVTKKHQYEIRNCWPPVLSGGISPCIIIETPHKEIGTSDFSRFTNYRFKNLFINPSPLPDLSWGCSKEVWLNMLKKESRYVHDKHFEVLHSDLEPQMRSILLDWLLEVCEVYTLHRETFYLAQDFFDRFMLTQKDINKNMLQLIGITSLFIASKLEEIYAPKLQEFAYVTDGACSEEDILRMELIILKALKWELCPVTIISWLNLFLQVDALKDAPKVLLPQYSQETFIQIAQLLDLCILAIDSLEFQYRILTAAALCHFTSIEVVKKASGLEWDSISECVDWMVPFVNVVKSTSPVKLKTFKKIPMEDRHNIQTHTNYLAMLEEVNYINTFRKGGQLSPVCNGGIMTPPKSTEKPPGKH
UniProt P24864: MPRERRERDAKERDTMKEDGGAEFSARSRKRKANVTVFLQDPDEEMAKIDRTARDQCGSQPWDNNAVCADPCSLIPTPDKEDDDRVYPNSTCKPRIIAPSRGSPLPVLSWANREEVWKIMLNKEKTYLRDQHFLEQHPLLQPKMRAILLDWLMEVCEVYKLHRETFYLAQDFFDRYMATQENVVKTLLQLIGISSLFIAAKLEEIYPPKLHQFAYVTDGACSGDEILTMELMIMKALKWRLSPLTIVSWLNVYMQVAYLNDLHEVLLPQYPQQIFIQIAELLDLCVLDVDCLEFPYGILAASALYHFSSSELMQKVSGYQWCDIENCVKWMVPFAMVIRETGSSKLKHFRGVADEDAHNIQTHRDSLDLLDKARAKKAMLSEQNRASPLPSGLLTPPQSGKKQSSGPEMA
UniProt P38936: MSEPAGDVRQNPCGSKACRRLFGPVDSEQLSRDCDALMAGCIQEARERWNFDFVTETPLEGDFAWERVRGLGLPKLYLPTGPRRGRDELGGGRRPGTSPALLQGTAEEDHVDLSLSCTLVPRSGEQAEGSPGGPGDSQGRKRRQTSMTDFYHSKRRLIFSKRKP
UniProt Q13435: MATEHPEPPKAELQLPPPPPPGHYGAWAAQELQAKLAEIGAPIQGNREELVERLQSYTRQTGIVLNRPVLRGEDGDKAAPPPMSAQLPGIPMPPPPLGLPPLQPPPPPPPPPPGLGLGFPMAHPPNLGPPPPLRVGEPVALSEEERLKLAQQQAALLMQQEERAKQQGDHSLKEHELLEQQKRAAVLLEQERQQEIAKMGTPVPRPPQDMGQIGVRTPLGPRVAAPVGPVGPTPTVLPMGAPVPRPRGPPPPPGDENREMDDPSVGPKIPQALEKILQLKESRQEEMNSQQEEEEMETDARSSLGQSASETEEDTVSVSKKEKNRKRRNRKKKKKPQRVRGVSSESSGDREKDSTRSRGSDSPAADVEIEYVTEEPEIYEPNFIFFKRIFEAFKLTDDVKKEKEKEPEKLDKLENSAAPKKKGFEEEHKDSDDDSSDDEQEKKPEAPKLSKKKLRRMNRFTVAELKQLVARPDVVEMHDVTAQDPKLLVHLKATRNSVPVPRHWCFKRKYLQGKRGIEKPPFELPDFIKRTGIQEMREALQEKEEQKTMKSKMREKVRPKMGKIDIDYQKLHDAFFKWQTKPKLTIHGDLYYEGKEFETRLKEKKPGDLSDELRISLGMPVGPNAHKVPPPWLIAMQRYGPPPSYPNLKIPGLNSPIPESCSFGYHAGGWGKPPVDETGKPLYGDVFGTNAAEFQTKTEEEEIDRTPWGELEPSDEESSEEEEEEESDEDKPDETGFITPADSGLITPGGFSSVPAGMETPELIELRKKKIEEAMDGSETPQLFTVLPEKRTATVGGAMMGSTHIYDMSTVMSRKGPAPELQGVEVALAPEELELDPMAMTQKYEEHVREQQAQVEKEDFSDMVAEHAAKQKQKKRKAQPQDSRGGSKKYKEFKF
UniProt P46527: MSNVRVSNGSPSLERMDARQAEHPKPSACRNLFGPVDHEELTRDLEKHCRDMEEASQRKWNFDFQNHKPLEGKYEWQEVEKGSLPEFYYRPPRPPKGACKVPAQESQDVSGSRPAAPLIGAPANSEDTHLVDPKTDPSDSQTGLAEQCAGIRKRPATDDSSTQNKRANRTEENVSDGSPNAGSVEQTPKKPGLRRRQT

What was measured:
[1] = molecular target: cyclin E2 (human (endogenous in T-47D)) (UniProt O96020); assay: co-IP; lysates of T-47D cells immunoprecipitated (cyclin E1 C-19, cyclin E2 Epitomics, CDK2 C-19, non-immune IgG) and western blotted with the indicated antibodies; endogenous proteins
[2] = molecular target: T1, NPAT (human (endogenous in T-47D)) (UniProt Q14207); assay: proximity ligation; Duolink in situ Proximity Ligation Assay on PFA-fixed T-47D cells; detects two antibodies within 40 nm; foci counted from 10-15 cells per antibody pair; NPAT/αGST as negative control
T1 sequence: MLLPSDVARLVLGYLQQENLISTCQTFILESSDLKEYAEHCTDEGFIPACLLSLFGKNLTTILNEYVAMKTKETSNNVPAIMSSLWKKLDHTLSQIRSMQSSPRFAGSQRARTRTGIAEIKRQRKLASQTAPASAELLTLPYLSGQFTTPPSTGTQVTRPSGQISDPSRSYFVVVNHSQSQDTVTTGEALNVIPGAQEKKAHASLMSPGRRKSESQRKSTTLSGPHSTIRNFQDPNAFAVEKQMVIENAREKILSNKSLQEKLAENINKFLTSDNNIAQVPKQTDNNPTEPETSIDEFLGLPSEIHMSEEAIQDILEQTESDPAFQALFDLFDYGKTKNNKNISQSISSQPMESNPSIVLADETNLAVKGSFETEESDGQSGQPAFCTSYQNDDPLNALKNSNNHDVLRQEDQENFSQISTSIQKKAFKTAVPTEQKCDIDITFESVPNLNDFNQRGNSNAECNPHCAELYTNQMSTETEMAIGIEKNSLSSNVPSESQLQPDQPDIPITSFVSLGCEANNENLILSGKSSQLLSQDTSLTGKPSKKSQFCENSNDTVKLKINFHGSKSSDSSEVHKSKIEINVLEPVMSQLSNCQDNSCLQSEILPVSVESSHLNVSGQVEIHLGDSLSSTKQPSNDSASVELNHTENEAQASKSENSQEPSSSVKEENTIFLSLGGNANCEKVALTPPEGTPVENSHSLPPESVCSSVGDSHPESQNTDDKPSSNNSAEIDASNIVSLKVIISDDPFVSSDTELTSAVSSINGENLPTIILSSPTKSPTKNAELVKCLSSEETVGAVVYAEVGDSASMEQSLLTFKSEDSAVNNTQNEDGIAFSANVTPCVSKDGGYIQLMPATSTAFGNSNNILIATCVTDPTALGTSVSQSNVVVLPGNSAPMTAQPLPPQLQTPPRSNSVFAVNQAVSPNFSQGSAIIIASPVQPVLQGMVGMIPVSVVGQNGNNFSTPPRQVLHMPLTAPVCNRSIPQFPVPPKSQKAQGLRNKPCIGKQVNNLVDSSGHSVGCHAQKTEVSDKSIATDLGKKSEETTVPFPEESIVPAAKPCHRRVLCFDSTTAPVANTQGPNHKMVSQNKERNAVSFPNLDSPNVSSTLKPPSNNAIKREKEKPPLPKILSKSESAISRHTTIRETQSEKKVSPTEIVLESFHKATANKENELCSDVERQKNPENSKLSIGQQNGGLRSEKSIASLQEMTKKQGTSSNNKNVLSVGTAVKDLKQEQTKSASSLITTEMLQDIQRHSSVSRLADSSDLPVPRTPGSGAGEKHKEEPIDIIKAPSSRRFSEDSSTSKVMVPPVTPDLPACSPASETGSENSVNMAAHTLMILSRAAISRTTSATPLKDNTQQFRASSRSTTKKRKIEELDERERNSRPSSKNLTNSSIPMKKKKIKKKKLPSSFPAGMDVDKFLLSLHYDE

[3] = molecular target: cyclin E1 (human (endogenous in T-47D)) (UniProt P24864); assay: co-IP; lysates of T-47D cells immunoprecipitated (cyclin E1 C-19, cyclin E2 Epitomics, CDK2 C-19, non-immune IgG) and western blotted with the indicated antibodies; endogenous proteins

| Substance | binding [1] | binding [2] | binding [3] |
| --- | --- | --- | --- |
| p21^Waf1/Cip1 (from UniProt P38936 1-164) | binds |  |  |
| cyclin E1 (from UniProt P24864 1-410) |  | no binding |  |
| SAP 145 (from UniProt Q13435 1-895) | binds |  | binds |
| p27^Kip1 (from UniProt P46527 1-198) | binds |  |  |
